# In patent US20220372099A1 (priority 2019, published 2022):
# For part of these data: Not every detail of the peptide structures is certain; ends, links or a residue may be inferred. Marks after values point to notes of the source that are not given here. For part of these data: At least one structure is not confirmed: it was looked up by name or label, or the drawing left a doubt.
# Tests used:
# erythropoietic activity [1] = assay: repeat-dose study, 13 weekly SC doses with 35-day recovery, limiting erythropoiesis; type: in vivo, Cynomolgus monkeys; conditions: for Hgb levels reduced compared to concurrent controls: females
# Text: A cohort of animals (4/sex/group) were sacrificed on Day 92 (Main), and the remaining animals (2/sex/group) were sacrificed on Day 120 following a 35-day recovery period (Recovery).
# Polycythemia vera [2] = assay: Phase 2 study in patients with phlebotomy-requiring Polycythemia vera
# erythropoietic activity [3] = assay: repeat-dose study, 4 weekly SC doses with 28-day recovery, limiting erythropoiesis; conditions: for Hgb levels reduced as compared to concurrent controls: males
# Polycythemia vera [4] = conditions: cited from earlier work
# [5] = 0.6 mg/kg/dose SC weekly x13, Day 27, female
# [6] = 0.6 mg/kg/dose SC weekly x13, Day 27, male
# [7] = 0.6 mg/kg/dose SC weekly x13, Day 55, female
# [8] = 0.6 mg/kg/dose SC weekly x13, Day 55, male
# [9] = 0.6 mg/kg/dose SC weekly x13, Day 90, female
# [10] = 0.6 mg/kg/dose SC weekly x13, Day 90, male
# [11] = 0.6 mg/kg/dose SC weekly x13, Day 119 (Recovery), female
# [12] = 0.6 mg/kg/dose SC weekly x13, Day 119 (Recovery), male
# [13] = 2 mg/kg/dose SC weekly x13, Day 27, female
# [14] = 2 mg/kg/dose SC weekly x13, Day 27, male
# [15] = 2 mg/kg/dose SC weekly x13, Day 55, female
# [16] = 2 mg/kg/dose SC weekly x13, Day 55, male
# [17] = 2 mg/kg/dose SC weekly x13, Day 90, female
# [18] = 2 mg/kg/dose SC weekly x13, Day 90, male
# [19] = 2 mg/kg/dose SC weekly x13, Day 119 (Recovery), female
# [20] = 2 mg/kg/dose SC weekly x13, Day 119 (Recovery), male
# [21] = 6 mg/kg/dose SC weekly x13, Day 27, female
# [22] = 6 mg/kg/dose SC weekly x13, Day 27, male
# [23] = 6 mg/kg/dose SC weekly x13, Day 55, female
# [24] = 6 mg/kg/dose SC weekly x13, Day 55, male
# [25] = 6 mg/kg/dose SC weekly x13, Day 90, female
# [26] = 6 mg/kg/dose SC weekly x13, Day 90, male
# [27] = 6 mg/kg/dose SC weekly x13, Day 119 (Recovery), female
# [28] = 6 mg/kg/dose SC weekly x13, Day 119 (Recovery), male
# [29] = 1 mg/kg/dose SC weekly x4, Day 7, female
# [30] = 1 mg/kg/dose SC weekly x4, Day 7, male
# [31] = 1 mg/kg/dose SC weekly x4, Day 29, female
# [32] = 1 mg/kg/dose SC weekly x4, Day 29, male
# [33] = 3 mg/kg/dose SC weekly x4, Day 7, female
# [34] = 3 mg/kg/dose SC weekly x4, Day 7, male
# [35] = 3 mg/kg/dose SC weekly x4, Day 29, female
# [36] = 3 mg/kg/dose SC weekly x4, Day 29, male
# [37] = 10 mg/kg/dose SC weekly x4, Day 7, female
# [38] = 10 mg/kg/dose SC weekly x4, Day 7, male
# [39] = 10 mg/kg/dose SC weekly x4, Day 29, female
# [40] = 10 mg/kg/dose SC weekly x4, Day 29, male
# [41] = 10 mg/kg/dose SC weekly x4, Day 56 (Recovery), female
# [42] = 10 mg/kg/dose SC weekly x4, Day 56 (Recovery), male
smiles,measurement,setting,value
CCCCCCCCCCCCCCCC(=O)N[C@@H](CCC(=O)NCCCC[C@@H]1NC(=O)[C@H]([C@@H](C)CC)NC(=O)[C@@H](NC(=O)[C@@H]2CCCN2C(=O)[C@H](Cc2ccccc2)NC(=O)[C@H](Cc2c[nH]cn2)NC(=O)[C@@H](NC(=O)[C@H](CC(=O)O)NC(=O)CC(C)C)[C@@H](C)O)CSSC[C@@H](C(=O)N[C@@H](CCCCN)C(N)=O)NC(=O)CNC(=O)[C@H](CCCCN)NC(=O)[C@H](CO)NC(=O)[C@H](CCCNC(=N)N)NC(=O)[C@@H]2CCCN2C(=O)[C@H](CCC(=O)O)NC(=O)[C@H](Cc2ccccc2)NC1=O)C(=O)O [Compound A],% Hct change from concurrent controls,erythropoietic activity [1]; [5],−4%
same,Hgb change from concurrent controls,erythropoietic activity [1]; [5],-0.9 g/dL
same,% Hct change from concurrent controls,erythropoietic activity [1]; [6],−3* %
same,Hgb change from concurrent controls,erythropoietic activity [1]; [6],-1.0 g/dL
same,% Hct change from concurrent controls,erythropoietic activity [1]; [7],−3%
same,Hgb change from concurrent controls,erythropoietic activity [1]; [7],−1.4* g/dL
same,% Hct change from concurrent controls,erythropoietic activity [1]; [8],−3** %
same,Hgb change from concurrent controls,erythropoietic activity [1]; [8],−1.0** g/dL
same,% Hct change from concurrent controls,erythropoietic activity [1]; [9],−3%
same,Hgb change from concurrent controls,erythropoietic activity [1]; [9],−1.3** g/dL
same,% Hct change from concurrent controls,erythropoietic activity [1]; [10],−3%
same,Hgb change from concurrent controls,erythropoietic activity [1]; [10],−1.2* g/dL
same,% Hct change from concurrent controls,erythropoietic activity [1]; [11],+2%
same,Hgb change from concurrent controls,erythropoietic activity [1]; [11],+0.9 g/dL
same,% Hct change from concurrent controls,erythropoietic activity [1]; [12],+3%
same,Hgb change from concurrent controls,erythropoietic activity [1]; [12],+0.7 g/dL
same,Hgb levels reduced compared to concurrent controls,"erythropoietic activity [1]; 0.6 mg/kg, Day 90",1.3 g/dL
same,% Hct change from concurrent controls,erythropoietic activity [1]; [13],−7** %
same,Hgb change from concurrent controls,erythropoietic activity [1]; [13],−2.6*** g/dL
same,% Hct change from concurrent controls,erythropoietic activity [1]; [14],−5*** %
same,Hgb change from concurrent controls,erythropoietic activity [1]; [14],−1.3*** g/dL
same,% Hct change from concurrent controls,erythropoietic activity [1]; [15],−7*** %
same,Hgb change from concurrent controls,erythropoietic activity [1]; [15],−3.5*** g/dL
same,% Hct change from concurrent controls,erythropoietic activity [1]; [16],−7*** %
same,Hgb change from concurrent controls,erythropoietic activity [1]; [16],−3.0*** g/dL
same,% Hct change from concurrent controls,erythropoietic activity [1]; [17],−7*** %
same,Hgb change from concurrent controls,erythropoietic activity [1]; [17],−3.0*** g/dL
same,% Hct change from concurrent controls,erythropoietic activity [1]; [18],−4** %
same,Hgb change from concurrent controls,erythropoietic activity [1]; [18],−2.4*** g/dL
same,% Hct change from concurrent controls,erythropoietic activity [1]; [19],+4%
same,Hgb change from concurrent controls,erythropoietic activity [1]; [19],+1.3 g/dL
same,% Hct change from concurrent controls,erythropoietic activity [1]; [20],+4%
same,Hgb change from concurrent controls,erythropoietic activity [1]; [20],+1.1 g/dL
same,Hgb levels reduced compared to concurrent controls,"erythropoietic activity [1]; 2 mg/kg, Day 90",3.0 g/dL
same,% Hct change from concurrent controls,erythropoietic activity [1]; [21],−16*** %
same,Hgb change from concurrent controls,erythropoietic activity [1]; [21],−5.7*** g/dL
same,% Hct change from concurrent controls,erythropoietic activity [1]; [22],−17*** %
same,Hgb change from concurrent controls,erythropoietic activity [1]; [22],−5.9*** g/dL
same,% Hct change from concurrent controls,erythropoietic activity [1]; [23],−13*** %
same,Hgb change from concurrent controls,erythropoietic activity [1]; [23],−5.6*** g/dL
same,% Hct change from concurrent controls,erythropoietic activity [1]; [24],−21*** %
same,Hgb change from concurrent controls,erythropoietic activity [1]; [24],−7.2*** g/dL
same,% Hct change from concurrent controls,erythropoietic activity [1]; [25],−14*** %
same,Hgb change from concurrent controls,erythropoietic activity [1]; [25],−5.6*** g/dL
same,% Hct change from concurrent controls,erythropoietic activity [1]; [26],−17*** %
same,Hgb change from concurrent controls,erythropoietic activity [1]; [26],−6.2*** g/dL
same,% Hct change from concurrent controls,erythropoietic activity [1]; [27],+6%
same,Hgb change from concurrent controls,erythropoietic activity [1]; [27],+1.6 g/dL
same,% Hct change from concurrent controls,erythropoietic activity [1]; [28],+4%
same,Hgb change from concurrent controls,erythropoietic activity [1]; [28],+0.9 g/dL
same,Hgb levels reduced compared to concurrent controls,"erythropoietic activity [1]; 6 mg/kg, Day 90",5.6 g/dL
same,MCHC and MCH,erythropoietic activity [1]; SC weekly x13,Dose-dependent decreases
same,"RBC parameters (RBC counts, Hgb, and Hct)",erythropoietic activity [1]; SC weekly x13,dose-dependent decreases
same,reticulocyte over the course of treatment,Polycythemia vera [2]; 10-80 mg SC weekly,upward trend
same,serum ferritin levels during treatment,Polycythemia vera [2]; 10-80 mg SC weekly,increased progressively toward normal
same,No. of Weeks PHL Free After 1st Compound A Dose,"Polycythemia vera [2]; Subject 4, low risk, exposure 20, 40, 80, 60, PHB@W12",24 weeks
same,No. of Weeks PHL Free After 1st Compound A Dose,"Polycythemia vera [2]; Subject 9, low risk, exposure 20, 40",6 weeks
same,% Hct change from concurrent controls,erythropoietic activity [3]; [29],0%
same,Hgb change from concurrent controls,erythropoietic activity [3]; [29],-0.5 g/dL
same,% Hct change from concurrent controls,erythropoietic activity [3]; [30],+2%
same,Hgb change from concurrent controls,erythropoietic activity [3]; [30],+0.9 g/dL
same,% Hct change from concurrent controls,erythropoietic activity [3]; [31],0%
same,Hgb change from concurrent controls,erythropoietic activity [3]; [31],-0.8 g/dL
same,% Hct change from concurrent controls,erythropoietic activity [3]; [32],0%
same,Hgb change from concurrent controls,erythropoietic activity [3]; [32],-0.1 g/dL
same,Hgb levels reduced as compared to concurrent controls,"erythropoietic activity [3]; 1 mg/kg, Day 29",0.1 g/dL
same,% Hct change from concurrent controls,erythropoietic activity [3]; [33],−2%
same,Hgb change from concurrent controls,erythropoietic activity [3]; [33],-0.9 g/dL
same,% Hct change from concurrent controls,erythropoietic activity [3]; [34],−1%
same,Hgb change from concurrent controls,erythropoietic activity [3]; [34],-0.1 g/dL
same,% Hct change from concurrent controls,erythropoietic activity [3]; [35],−5%
same,Hgb change from concurrent controls,erythropoietic activity [3]; [35],−2.7** g/dL
same,% Hct change from concurrent controls,erythropoietic activity [3]; [36],−6%
same,Hgb change from concurrent controls,erythropoietic activity [3]; [36],−2.7** g/dL
same,"Hct levels decreased, in absolute terms",erythropoietic activity [3]; 3 mg/kg/dose male group,6%
same,Hgb levels reduced as compared to concurrent controls,"erythropoietic activity [3]; 3 mg/kg, Day 29",2.7 g/dL
same,% Hct change from concurrent controls,erythropoietic activity [3]; [37],−2%
same,Hgb change from concurrent controls,erythropoietic activity [3]; [37],−1.4** g/dL
same,% Hct change from concurrent controls,erythropoietic activity [3]; [38],−1%
same,Hgb change from concurrent controls,erythropoietic activity [3]; [38],-0.2 g/dL
same,% Hct change from concurrent controls,erythropoietic activity [3]; [39],−17*** %
same,Hgb change from concurrent controls,erythropoietic activity [3]; [39],−6.5*** g/dL
same,% Hct change from concurrent controls,erythropoietic activity [3]; [40],−22*** %
same,Hgb change from concurrent controls,erythropoietic activity [3]; [40],−7.2*** g/dL
same,% Hct change from concurrent controls,erythropoietic activity [3]; [41],0%
same,Hgb change from concurrent controls,erythropoietic activity [3]; [41],-0.4 g/dL
same,% Hct change from concurrent controls,erythropoietic activity [3]; [42],+4%
same,Hgb change from concurrent controls,erythropoietic activity [3]; [42],+1.2 g/dL
same,"Hct levels decreased, in absolute terms",erythropoietic activity [3]; 10 mg/kg/dose male group,22%
same,Hgb levels reduced as compared to concurrent controls,"erythropoietic activity [3]; 10 mg/kg, Day 29",7.2 g/dL
N#CC[C@H](C1CCCC1)n1cc(-c2ncnc3[nH]ccc23)cn1 [ruxolitinib],"patients who met at least 1 component of the primary end point (hematocrit control, spleen reduction)","Polycythemia vera [4]; at 32 weeks, n=110",77%
same,patients who achieved the primary end point with a confirmed response,Polycythemia vera [4]; at week 48,91%
same,probability of maintaining a primary response,Polycythemia vera [4]; for 1 year,94%
